Sequences and labels used below:
B1: PhoQ; a variant is named by its letters at X, in order, P23837 (parent)
chain: MKKLLRLFFPLSLRVRFLLATAAVVLVLSLAYGMVALIGYSVSFDKTTFRLLRGESNLFYTLAKWENNKLHVELPENIDKQSPTMTLIYDENGQLLWAQRDVPWLMKMIQPDWLKSNGFHEIEADVNDTSLLLSGDHSIQQQLQEVREDDDDAEMTHSVAVNVYPATSRMPKLTIVVVDTIPVELKSSYMVWSWFIYVLSANLLLVIPLLWVAAWWSLRPIEALAKEVRELEEHNRELLNPATTRELTSLVRNLNRLLKSERERYDKYRTTLTDLTHSLKTPLXXLQXXLRSLRSEKMSVSDAEPVMLEQISRISQQIGYYLHRASMRGGTLLSRELHPVAPLLDNLTSALNKVYQRKGVNISLDISPEISFVGEQNDFVEVMGNVLDNACKYCLEFVEISARQTDEHLYIVVEDDGPGIPLSKREVIFDRGQRVDTLRPGQGVGLAVAREITEQYEGKIVAGESMLGGARMEVIFGRQHSAPKDE

Some of the results follow. Where only a bound is given, the exact number is not on record here.

Data on 84 variants can be found in a collection of fitness landscapes (doi:10.1126/science.1257360).

The variants in this experiment derive from B1. Briefly: enrichment ratio after two sorts for PhoP signalling (ratio (wild type AVST 3.29)); higher = more functional. As to conditions: with PhoP (E. coli).
As for TQAM, the enrichment ratio turned out to be 25.5.
As for LEGK, the enrichment ratio is not above 0.25.
Turning to LQPP, the enrichment ratio is not above 0.25.
With ANSC, the enrichment ratio was 11.9.
On to ICFT, for which the enrichment ratio is not above 0.25.
For the variant KEWL, the enrichment ratio was not above 0.25.
For RHMY the value was not above 0.25; for ICPW, not above 0.25; for LKMY, not above 0.25.
For WEVL, the enrichment ratio was not above 0.25.
On to SYKL, for which the enrichment ratio was not above 0.25.
As to ESHA, the enrichment ratio is not above 0.25.
With TSEG, the enrichment ratio is not above 0.25.
For the variant DTNP, the enrichment ratio is not above 0.25.
Take GPIT: the enrichment ratio was not above 0.25.
Regarding WDNQ, the enrichment ratio was not above 0.25.
Under ASLY stands 13.9.
For the variant EHAS, the enrichment ratio is not above 0.25.
For FEEY, the enrichment ratio is not above 0.25.
Regarding KCLV, the enrichment ratio is not above 0.25.
In the case of HFAY, the enrichment ratio is not above 0.25.
RQNH: the enrichment ratio is not above 0.25.
In the case of KFKM, the enrichment ratio is not above 0.25.
Regarding AIPR, the enrichment ratio is not above 0.25.
In the case of SNLR, the enrichment ratio is 3.15.
On to DWFE, for which the enrichment ratio was not above 0.25.
For EDDC the value was not above 0.25.
Turning to ENIF, the enrichment ratio was not above 0.25.
As to MLKH, the enrichment ratio was not above 0.25.
Under VCQR stands not above 0.25.
Under HMMP stands not above 0.25; under HFVC, not above 0.25.
For QICC the value was not above 0.25; for FSMM, 4.33; for IEEL, not above 0.25.
On to QTNF, for which the enrichment ratio worked out at 2.39.
For ASFF, the enrichment ratio was not above 0.25.
EHYL: the enrichment ratio is not above 0.25.
YDKD: the enrichment ratio was not above 0.25.
As to VRTD, the enrichment ratio is not above 0.25.
Take ELFG: the enrichment ratio is not above 0.25.
PHNI: the enrichment ratio is not above 0.25.
Regarding RYWD, the enrichment ratio was not above 0.25.
Under EPIV stands not above 0.25; under WAWF, not above 0.25; under FSTD, not above 0.25.
As for FPQN, the enrichment ratio was not above 0.25.
As to DDDR, the enrichment ratio is not above 0.25.
In the case of IDCG, the enrichment ratio was not above 0.25.
Regarding RRNW, the enrichment ratio is not above 0.25.
For IILE the value was not above 0.25; for LTAL, not above 0.25.
With ILDE, the enrichment ratio was not above 0.25.
Under IERA stands not above 0.25; under WNIG, not above 0.25.
For the variant RNRH, the enrichment ratio is not above 0.25.
As to VKTA, the enrichment ratio was not above 0.25.
On to PMVI, for which the enrichment ratio was not above 0.25.
With LRPM, the enrichment ratio was not above 0.25.
For the variant RNDD, the enrichment ratio was not above 0.25.
As for HNDQ, the enrichment ratio is not above 0.25.
DGIS: the enrichment ratio is not above 0.25.
In the case of LDNR, the enrichment ratio was not above 0.25.
In the case of LWHQ, the enrichment ratio is not above 0.25.
Turning to PERV, the enrichment ratio is not above 0.25.
TARS: the enrichment ratio is not above 0.25.
With LIGY, the enrichment ratio is not above 0.25.
Under NDVT stands not above 0.25.
Consider LEIQ, for which the enrichment ratio is not above 0.25.
Turning to HVSW, the enrichment ratio is not above 0.25.
On to PTMC, for which the enrichment ratio was not above 0.25.
With PRIW, the enrichment ratio is not above 0.25.
On to GSRQ, for which the enrichment ratio is not above 0.25.
Under YLPS stands not above 0.25; under WLQD, not above 0.25.
Under LRST stands not above 0.25; under HMHE, not above 0.25.
For FDII the value was not above 0.25.
In the case of RKAA, the enrichment ratio is not above 0.25.
For YTSW, the enrichment ratio was not above 0.25.
As to RRDE, the enrichment ratio was not above 0.25.
With ECGL, the enrichment ratio is not above 0.25.
On to YKLS, for which the enrichment ratio is not above 0.25.
With GSNW, the enrichment ratio was not above 0.25.
